Among all 310,000 compounds or so, about 2,200 (0.71%) showed an effect of 50% or more. The effect is printed as a negative number. This is one part of the list.
Biological target: human ether-à-go-go-related gene (hERG) potassium channel (human, UniProt Q12809)
Assay: primary screen, population patch clamp on CHO cells stably expressing hERG

Chain of human ether-à-go-go-related gene (hERG) potassium channel (Q12809 whole entry, looked up): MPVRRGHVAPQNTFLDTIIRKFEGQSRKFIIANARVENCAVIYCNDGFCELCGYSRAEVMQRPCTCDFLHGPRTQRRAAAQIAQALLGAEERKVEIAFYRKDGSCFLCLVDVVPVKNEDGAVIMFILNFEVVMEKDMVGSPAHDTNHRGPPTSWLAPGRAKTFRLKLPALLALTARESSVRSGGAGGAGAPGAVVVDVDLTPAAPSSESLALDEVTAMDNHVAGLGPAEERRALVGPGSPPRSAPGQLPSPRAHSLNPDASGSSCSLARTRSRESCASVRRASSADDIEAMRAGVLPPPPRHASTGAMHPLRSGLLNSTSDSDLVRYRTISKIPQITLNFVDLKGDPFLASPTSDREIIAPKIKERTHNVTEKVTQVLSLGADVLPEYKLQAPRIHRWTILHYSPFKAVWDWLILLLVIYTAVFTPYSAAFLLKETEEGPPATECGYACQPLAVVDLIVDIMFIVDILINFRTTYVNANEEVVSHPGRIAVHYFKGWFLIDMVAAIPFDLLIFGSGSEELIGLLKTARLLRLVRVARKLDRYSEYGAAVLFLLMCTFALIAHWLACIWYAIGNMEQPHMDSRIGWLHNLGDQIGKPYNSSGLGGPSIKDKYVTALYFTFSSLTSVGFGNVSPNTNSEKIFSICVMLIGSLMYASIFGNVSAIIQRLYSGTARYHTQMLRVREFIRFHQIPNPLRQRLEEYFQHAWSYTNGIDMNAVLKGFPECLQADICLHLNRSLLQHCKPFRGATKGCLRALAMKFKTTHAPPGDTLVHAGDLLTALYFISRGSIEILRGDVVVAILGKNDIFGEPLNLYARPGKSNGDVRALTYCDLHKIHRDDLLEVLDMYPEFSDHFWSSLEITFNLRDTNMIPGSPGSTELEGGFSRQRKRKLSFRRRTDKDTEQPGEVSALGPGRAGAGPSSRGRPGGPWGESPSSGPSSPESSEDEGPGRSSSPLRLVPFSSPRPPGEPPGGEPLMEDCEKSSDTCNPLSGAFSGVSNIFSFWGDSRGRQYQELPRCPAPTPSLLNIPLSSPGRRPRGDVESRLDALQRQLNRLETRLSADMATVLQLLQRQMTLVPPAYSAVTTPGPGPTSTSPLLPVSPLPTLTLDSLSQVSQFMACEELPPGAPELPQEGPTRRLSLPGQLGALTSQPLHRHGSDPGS

Row | Compound | hERG current change (%, negative = inhibition) at 1uM [%]
1 | CN1CCCCC1c1ccc(-c2cccnc2)nc1.Cl (stereo not shown) | 8.58
2 | O=S(=O)(NCC1CCCO1)c1ccc(S(=O)(=O)N2CCc3ccccc3C2)cc1 (stereo not shown) | 20
3 | COc1nc(N(C)C)nc(N(C)c2cc(Cl)cc(Cl)c2)n1 | 8.94
4 | COc1cc(NC(=S)NCC2CCCO2)c(OC)cc1Cl (stereo not shown) | 5.47
5 | C[C@H]1CC[C@]2(O[C@@H](CCO)C[C@H](O)[C@H]2O)O1 | 18.4
6 | O=c1[nH]c(=O)c2nnc(N/N=C/c3ccccc3F)nc2[nH]1 | 13.2
7 | O=C1/C(=C\c2ccco2)SC(=S)N1c1ccccc1 | 5.94
8 | CCCc1nc(NCc2ccccn2)c2nnn(Cc3ccccc3F)c2n1 | 10.7
9 | O=C(NC1CCCCC1)c1cc(-c2cccs2)on1 | 4.69
10 | COCCNC(=O)COc1ccccc1Cl | 11.7
11 | Nc1c(Cl)cc2c(c1Oc1ccccc1)C(=O)c1ccccc1C2=O | 11.2
12 | O=c1[nH]cnc2ccsc12 | 16.5
13 | O=C(NCCCN1CCC(Cc2ccccc2)CC1)C1CCN(S(=O)(=O)N2CCC3(CC2)OCCO3)CC1 | 7.63
14 | Cc1cc(=O)oc2cc(OCC(=O)NCC3CCC(C(=O)O)CC3)ccc12 (stereo not shown) | 17.2
15 | O=C(COc1ccccc1F)c1ccc(O)cc1O | -15.1
16 | CC1=Nc2nc(N3CCCCCC3)c(C#N)c3c4c(nc(c23)N1)N(c1ccc2ccccc2c1)C(=O)C4.CN(C)C=O | 16.3
17 | Cc1ccc(S(=O)(=O)N2CCOCC2)cc1C(=O)Nc1ccc2c(c1)OCCO2 | 2.29
18 | O=C(CN1CCCC1)Nc1ccc([N+](=O)[O-])cc1Cl | 1.33
19 | COc1ccc(CN(C)C(C)C(=O)Nc2ccc(S(=O)(=O)N3CCOCC3)cc2)c(OC)c1 (stereo not shown) | 7.51
20 | COc1ccc(OC)c(N(CC(=O)Nc2cccc3ccccc23)S(C)(=O)=O)c1 | 9.21

Row | Compound | hERG current change (%, negative = inhibition) at 1uM [%]
21 | O=[N+]([O-])c1c(Nc2ccccc2)ccc2nonc12 | 9.18
22 | O=c1c2ccccc2nnn1CSc1ncnc2ccccc12 | 11.8
23 | N#Cc1c(SCC(N)=O)nc2c(c1-c1ccncc1)CCCC2 | 1.33
24 | COc1ccc(CCN(C(=O)c2ccc(F)cc2)C2=CC3CCC(C2)N3C)cc1OC.Cl (stereo not shown) | -22.6
25 | Cc1cc(NC(=O)c2cccc(Cl)c2)n[nH]1 | 6.2
26 | CCC(=O)N(C)CCc1cc2c(c(OC)c1/C=N/NC(=O)c1ccncc1)OCO2 | 8.99
27 | C/C(=N\NC(=O)C1CC1c1ccccc1)c1ccc(C)s1 (stereo not shown) | 5.29
28 | CCOC(=O)/C(C#N)=c1/s/c(=C2\C=Cc3ccccc3N2CC)c(=O)n1CC | 8.73
29 | COc1ccccc1/C=N/NC(=O)c1cccc2ccccc12 | 13.4
30 | Cc1cc(C)cc(NC(=O)c2ccc(Cn3nc(C)c(Cl)c3C)o2)c1 | 11.4
31 | c1cnc2c(SCc3ccc(-c4nnco4)cc3)cccc2c1 | 9.22
32 | O=C1CC(C2CCCO2)C(=O)N1Cc1ccccc1 (stereo not shown) | 5.53
33 | O=C(Cn1nc(-c2ccccc2)ccc1=O)Nc1ccc(N2CCN(C(=O)c3ccccc3)CC2)cc1 | -2.31
34 | c1ccc(-c2cc(N3CCOCC3)nc(-c3ccccc3)n2)cc1 | 0.549
35 | O=C(/C=C/c1ccc(F)cc1)N1CC[C@@]2(O)CCCC[C@H]2C1 | 8.98
36 | Cc1csc(NC(=O)c2cc([N+](=O)[O-])cc([N+](=O)[O-])c2)n1 | 11.7
37 | CCOC(=O)c1c(C)n(C)c2cc(-c3ccc(C)cc3)c(O)cc12 | 9.68
38 | NC(=O)c1ccsc1NC(=O)COC(=O)c1cnccn1 | 10.5
39 | O=C(CSc1ncn(-c2ccccc2)n1)Nc1nccs1 | 8.99
40 | O=C(c1cnc(N2CCN(c3ncccn3)CC2)c2ccccc12)N1CCN(c2ncccn2)CC1 | 3.66

Row | Compound | hERG current change (%, negative = inhibition) at 1uM [%]
41 | CC(=O)NCCCOc1ccc([N+](=O)[O-])cc1Cl | 7.57
42 | O=C(c1cc2ccccc2o1)N1CCN(c2ccccc2Cl)CC1 | 3.51
43 | CN1CCc2nc(SCc3ccc(C(C)(C)C)cc3)c(C#N)cc2C1 | 9.74
44 | Cc1ccccc1-c1nnc(SCC(=O)c2c(N)n(C3CC3)c(=O)[nH]c2=O)o1 | 14.1
45 | CC(=O)N1CCc2cc(S(=O)(=O)NC(C(=O)NCc3ccccc3)C(C)C)ccc21 (stereo not shown) | -0.474
46 | CCCCSc1nnc(-c2ccc(C)cc2)n1C | -10.9
47 | CCCCn1c(SCC(=O)Nc2cc(C)on2)nc2ccccc2c1=O | -2.5
48 | CN(c1ccc(C(=O)NC2CCCC2)cc1)S(=O)(=O)c1ccc(Cl)cc1 | 11.9
49 | COc1ccccc1-c1nc2ccccc2nc1-c1ccccc1 | 12.5
50 | Cc1ccc(SCCOCCN2CC(C)OC(C)C2)cc1.Cl (stereo not shown) | 9.17
51 | Nc1nc(-c2cc3c(cc2Cl)OCCO3)cs1 | 10.1
52 | CCC(C)[C@H](NC(=O)Nc1cccc(Cl)c1)C(=O)O (stereo partly shown) | 13.6
53 | O=C(c1ccccc1F)N1CCN(c2ccccc2F)CC1 | 7.47
54 | CN(Cc1ccccc1)CC(O)COc1ccc(CNCc2cccnc2)cc1 (stereo not shown) | 9.4
55 | CCOC(=O)Cc1csc(NC(=O)COc2ccc(C)cc2)n1 | 10.3
56 | COc1ccccc1CNC(=O)C1CCC1 | 1.49
57 | CC(C)(O)c1[nH]c2cc(C(F)(F)F)ccc2c1C(C)(C)O | 9.74
58 | COc1cc([N+](=O)[O-])ccc1NC(=O)NCC1CCN(Cc2ccc(Cl)cc2)CC1 | -6.52

Reference: PMC4336329 (PLoS ONE, 2015)
